Out of some 230,000 compounds screened, about 3,600 (1.6%) were called active. Inconclusive means that the source gave no clear call. Such entries were picked first, then a sample of the others. The call rests on the fitted dose curve; in most records, active means well fitted inhibition curve with a large enough effect (not every such curve was filed as active); inconclusive means small, poorly fitted or top-dose-only effect, or another doubt; inactive means no such curve, though single readings can be large or run the other way. Potencies beside an inconclusive call are fits to weak or partial responses and may not hold up.
target: Lysine-specific demethylase 4E (Homo sapiens) (UniProt B2RXH2); assay: qHTS Assay for Inhibitors of Human Jumonji Domain Containing 2E (JMJD2E); details: JMJD2E catalytic domain, FDH-coupled NADH fluorescence (FDH is formaldehyde dehydrogenase); series mostly up to 57.1 µM
Chain of UniProt B2RXH2 (B2RXH2 whole entry, looked up, the tested form may be a part): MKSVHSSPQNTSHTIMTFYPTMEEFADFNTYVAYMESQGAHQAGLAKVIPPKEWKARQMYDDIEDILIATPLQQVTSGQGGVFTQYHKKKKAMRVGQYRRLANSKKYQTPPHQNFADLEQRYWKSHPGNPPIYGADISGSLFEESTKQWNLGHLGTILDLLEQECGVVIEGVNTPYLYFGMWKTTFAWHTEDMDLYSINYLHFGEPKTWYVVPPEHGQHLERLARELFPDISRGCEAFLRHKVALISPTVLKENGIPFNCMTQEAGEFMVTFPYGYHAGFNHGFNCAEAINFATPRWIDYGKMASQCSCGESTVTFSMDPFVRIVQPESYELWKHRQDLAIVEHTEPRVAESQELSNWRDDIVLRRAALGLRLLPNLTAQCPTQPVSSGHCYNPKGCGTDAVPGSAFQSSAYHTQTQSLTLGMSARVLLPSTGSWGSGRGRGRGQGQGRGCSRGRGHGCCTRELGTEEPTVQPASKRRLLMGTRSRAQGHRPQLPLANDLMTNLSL
Further: nearly all actives have a fitted effect of over 50% in size.
Potency means the concentration at half of the fitted maximal effect; tags describe the fitted curve by direction and shape.

Question: For CCOC(=O)C(=O)C1(C(=O)OCC)Oc2cc(OC)cc(OC)c2C(=O)C1c1ccccc1 (stereo not drawn), which Potency is on record?
Answer: inconclusive: 35.5 µM [inhibitor, single point]

Question: Which Potency does the source give for CC(=O)N(c1ccc2oc(=O)sc2c1)S(=O)(=O)c1ccccc1 here?
Answer: inactive

Question: How did the Potency turn out when COc1ccc(/C=N/NC(=O)c2nn(-c3ccccc3)c(=O)c3c(N)scc23)cc1 was run?
Answer: inconclusive: 11.2 µM [inhibitor, partial curve, poor fit]

Question: How did the Potency turn out when COc1ccccc1NS(=O)(=O)c1cccc(C(=O)N/N=C/c2ccc(N3CCOCC3)cc2)c1 was run?
Answer: inconclusive: 39.8 µM [inhibitor, single point]

Question: Cc1nc2ccccn2c1C(=O)NC1CCCCC1 was tested. Which Potency did it give?
Answer: inconclusive: 28.2 µM [inhibitor, partial curve]

Question: With CC1=CC(C)(C)Nc2ccccc21 as the compound, how does the Potency read?
Answer: inconclusive: 31.6 µM [inhibitor, partial curve]

Question: With COC(=O)c1ccc(C)c(-n2c(C)cc(C=O)c2C)c1 as the compound, how does the Potency read?
Answer: inactive

Question: Cc1cc(C)n(-c2ncccc2[N+](=O)[O-])n1 was tested. Which Potency did it give?
Answer: inactive

Question: How did the Potency turn out when C=CCn1c(=O)/c(=C/c2ccc(C)o2)s/c1=C(/C#N)C(=O)c1ccccc1 was run?
Answer: inactive

Question: For Cc1ccc(C(=O)N2CCN(c3ccccc3)CC2)cc1C, which Potency is on record?
Answer: inactive

Question: For CC(C)(C)NC(=O)C(c1ccncc1)N(Cc1cccs1)C(=O)Cn1nnc(-c2cccs2)n1 (stereo not drawn), which Potency is on record?
Answer: inconclusive: 39.8 µM [inhibitor, single point]

Question: How did the Potency turn out when CCOC(=O)c1c(NC(=O)c2ccnn2C)sc(C)c1C was run?
Answer: inconclusive: 31.6 µM [inhibitor, partial curve]

Question: Which Potency does the source give for N#Cc1c(C(F)(F)F)cc(C2CC2)[nH]c1=O here?
Answer: inconclusive: 28.2 µM [inhibitor, partial curve]

Question: For Nc1ccc(N2CCN(CCCCN3C(=O)C4CCCN4C3=O)CC2)cc1 (stereo not drawn), which Potency is on record?
Answer: inconclusive: 28.2 µM [inhibitor, single point]

Question: N#C/C(=C\c1cc([N+](=O)[O-])ccc1Cl)C(N)=O was tested. Which Potency did it give?
Answer: inactive

Question: How did the Potency turn out when O=c1c(=O)n(O)c2ccccc2n1O was run?
Answer: inconclusive: 39.8 µM [inhibitor, single point]

Question: For O=C(/C=C\c1cccs1)c1c(O)ccc2ccc(=O)oc12, which Potency is on record?
Answer: inactive

Question: Which Potency does the source give for CCOc1ccc(CNC(=O)CCCc2cn(C)c3ccccc23)cc1OC here?
Answer: inconclusive: 31.6 µM [inhibitor, single point]

Question: C/C(=N\Nc1ccc([N+](=O)[O-])cc1)c1ccc(N)cc1 was tested. Which Potency did it give?
Answer: inconclusive: 35.5 µM [inhibitor, single point]

Question: How did the Potency turn out when COc1cc([N+](=O)[O-])cc(/C=N/NC(=O)Cn2nc(C)cc2C)c1O was run?
Answer: active: 7.08 µM

Question: With COc1c(C(CC(C)C)OC(C)=O)ccc2c1C(=O)OCc1cc(C)cc(O)c1O2 (stereo not drawn) as the compound, how does the Potency read?
Answer: inactive

Question: How did the Potency turn out when CN1CCc2cc3c(c4c2[C@H]1[C@H](O)c1ccccc1-4)OCO3 was run?
Answer: active: 17.8 µM

Question: O=C(COC(=O)c1ccc([N+](=O)[O-])s1)NC(=O)NCc1ccccc1 was tested. Which Potency did it give?
Answer: inactive

Question: How did the Potency turn out when C[n+]1cc[nH]c1SCC(=O)c1ccc(Cl)cc1 was run?
Answer: inactive

Question: How did the Potency turn out when COc1cc2c(=O)n(Cc3ccccc3)c(=O)n(CC(=O)NCc3ccco3)c2cc1OC was run?
Answer: inconclusive: 28.2 µM [inhibitor, single point]

Question: For CCc1nc(N[C@H](C(=O)O)C(C)CC)c2oc3ccccc3c2n1 (stereo partly drawn), which Potency is on record?
Answer: inactive

Question: With CC1=CC(c2ccccc2)n2nc(N3C(=O)C4CC=CCC4C3=O)nc2N1 (stereo not drawn) as the compound, how does the Potency read?
Answer: inconclusive: 35.5 µM [inhibitor, partial curve]

Question: With COc1ccc(-c2cc(-c3ccccc3)nc(N3CCCC3)n2)cc1OC as the compound, how does the Potency read?
Answer: inconclusive: 25.1 µM [inhibitor, partial curve]

Question: For Cc1cccc(CSCC(=O)NCc2ccc(S(N)(=O)=O)cc2)c1, which Potency is on record?
Answer: inactive

Question: How did the Potency turn out when CCOC(=O)N1CCC(N2C(=O)c3ccccc3C2Nc2ccc(S(=O)(=O)N(CC)CC)cc2)CC1 (stereo not drawn) was run?
Answer: inactive

Question: For COC(=O)C1=C(C)Nc2nnnn2C1c1ccccc1Cl (stereo not drawn), which Potency is on record?
Answer: inactive

Question: For CCOC(=O)Cc1csc(NC(=O)/C=C/c2ccc(Cl)cc2)n1, which Potency is on record?
Answer: inconclusive: 28.2 µM [inhibitor, single point]

Question: Oc1ccccc1C(Nc1nccs1)c1ccc2cccnc2c1O (stereo not drawn) was tested. Which Potency did it give?
Answer: inconclusive: 28.2 µM [inhibitor, single point]

Question: How did the Potency turn out when O=C(Nc1ccc(Cl)cc1)Nc1ccccc1C(=O)O was run?
Answer: inconclusive: 3.16 µM [inhibitor, partial curve]

Question: With Cc1ccc(SCCC(=O)NCCSCc2ccccc2C)cc1 as the compound, how does the Potency read?
Answer: inconclusive: 31.6 µM [inhibitor, partial curve]

Question: Which Potency does the source give for Cc1ccc(NC(=O)Cn2c(/C=C/c3ccccc3)nc3ccccc32)cc1C here?
Answer: inconclusive: 20 µM [inhibitor, partial curve]

Question: Which Potency does the source give for O=C(Nc1ccccc1)c1ccc(N2CCN(c3ccccn3)CC2)c(S(=O)(=O)N2CCOCC2)c1 here?
Answer: inconclusive: 39.8 µM [inhibitor, single point]

Question: Which Potency does the source give for COc1cccc(/C(O)=C/c2nc3ccc(C(=O)NCCc4ccc(Cl)cc4)cc3[nH]c2=O)c1 here?
Answer: inconclusive: 39.8 µM [inhibitor, single point]

Question: With CCOC(=O)c1c(NC(=O)C2COc3ccccc3O2)sc(C)c1C (stereo not drawn) as the compound, how does the Potency read?
Answer: inconclusive: 35.5 µM [inhibitor, single point]

Question: For N#CC1=C2SCN(Cc3ccco3)CN2C(=O)CC1c1cccc2ccccc12 (stereo not drawn), which Potency is on record?
Answer: inconclusive: 28.2 µM [inhibitor, partial curve]

Question: For CCCC(C)C(=O)Nc1ccc(S(N)(=O)=O)cc1 (stereo not drawn), which Potency is on record?
Answer: inactive

Question: Cc1cccc2[nH]c3c(N4CCN(C(=O)c5ccco5)CC4)ncnc3c12 was tested. Which Potency did it give?
Answer: inconclusive: 31.6 µM [inhibitor, partial curve]

Question: How did the Potency turn out when CC(=O)n1cc(N(C(=O)CCl)c2ccccc2)c2ccccc21 was run?
Answer: inconclusive: 31.6 µM [inhibitor, single point]

Question: Which Potency does the source give for CCOc1ccc(C(=O)NC(=S)Nc2ccccc2N2CCC(C)CC2)cc1[N+](=O)[O-] here?
Answer: inactive

Question: How did the Potency turn out when O=C(O)C1CC(=O)N(c2ccc(OCc3ccccc3Cl)cc2)C1 (stereo not drawn) was run?
Answer: inactive

Question: How did the Potency turn out when COc1ccc(O)c(-c2cc(-c3cccs3)[nH]n2)c1 was run?
Answer: inactive

Question: With CCOC(=O)c1cc(NC(=O)c2ccccc2)c(=O)n2c1oc1ccccc12 as the compound, how does the Potency read?
Answer: inconclusive: 6.31 µM [inhibitor, single point]

Question: Which Potency does the source give for O=C(c1nsc(Cl)c1Cl)N1CCCCC1 here?
Answer: inactive

Question: How did the Potency turn out when COc1cc(NC(=O)c2cc3c(=O)n(C)c4ccccc4c3n2C)cc(OC)c1OC was run?
Answer: inconclusive: 28.2 µM [inhibitor, partial curve]

Question: Cc1ccc(OCCCCNC2CCCC(C)C2C)c(C)c1 (stereo not drawn) was tested. Which Potency did it give?
Answer: inconclusive: 25.1 µM [inhibitor, single point]

Question: How did the Potency turn out when COc1ccc(/C=C/S(=O)(=O)NCc2ccccc2)cc1OC was run?
Answer: inconclusive: 35.5 µM [inhibitor, single point]

Question: With Cc1cc(Nc2ccc(Cl)cc2)nc(NCc2ccccc2)n1 as the compound, how does the Potency read?
Answer: inconclusive: 35.5 µM [inhibitor, single point]

Question: With CCOC(=O)c1cc2sc(C)cc2n1CC(=O)N1CCOCC1 as the compound, how does the Potency read?
Answer: inconclusive: 0.1 µM [inhibitor, single point]

Question: For CCOC(=O)c1sc(NC(=S)NC(=O)c2ccccc2)nc1C, which Potency is on record?
Answer: inactive

Question: Cc1nc2c(C#N)cnn2c2c1CCN(Cc1ccccc1)N2C was tested. Which Potency did it give?
Answer: inconclusive: 1.26 µM [inhibitor, full curve]

Question: Which Potency does the source give for CN=c1scc(C)n1/N=C/c1ccc2c(c1)OCO2 here?
Answer: inactive

Question: For CCC(C)NC(=O)C(Sc1ccccc1)c1ccccc1 (stereo not drawn), which Potency is on record?
Answer: inconclusive: 0.01 µM [inhibitor, full curve]

Question: Which Potency does the source give for Cc1nc2ccccn2c1C(=O)NC1CCCc2ccccc21 (stereo not drawn) here?
Answer: inconclusive: 3.55 µM [inhibitor, partial curve]

Question: CCC(C)C(NS(=O)(=O)c1ccc(C)cc1)C(=O)Oc1ccc2c3c(c(=O)oc2c1)CCC3 (stereo not drawn) was tested. Which Potency did it give?
Answer: inconclusive: 17.8 µM [inhibitor, partial curve]

Question: Which Potency does the source give for CN(C)C=Nc1nc2ccccc2nc1N1CCCC1 here?
Answer: inconclusive: 31.6 µM [inhibitor, partial curve]

Question: For Cc1cc2cc(C)c3nnc(SCC(=O)NCc4ccc5c(c4)OCO5)n3c2cc1C, which Potency is on record?
Answer: inconclusive: 39.8 µM [inhibitor, single point]

Question: With Cc1cnc(SCCc2ccncc2)nc1C as the compound, how does the Potency read?
Answer: inactive

Question: With O=C(CSCc1cnn(-c2ccccc2)c1-n1cccc1)NCc1ccccn1 as the compound, how does the Potency read?
Answer: inactive

Question: For CCC1CCc2c(sc(NC(=O)C3c4ccccc4Oc4ccccc43)c2C(N)=O)C1 (stereo not drawn), which Potency is on record?
Answer: inconclusive: 35.5 µM [inhibitor, single point]

Question: With c1ccc2c(c1)OCC(c1nnc3sc(-c4ccc5c(c4)OCO5)nn13)O2 (stereo not drawn) as the compound, how does the Potency read?
Answer: inconclusive: 31.6 µM [inhibitor, partial curve]

Question: For COc1cc2c(cc1NC(=S)Nc1cccc3ccccc13)oc1ccccc12, which Potency is on record?
Answer: inconclusive: 15.8 µM [inhibitor, partial curve]

Question: For CCOC(=O)c1c(C)oc2c1C(=O)c1ccccc1C2=O, which Potency is on record?
Answer: inactive

Question: For COc1ccnc(NCc2cccc(C(F)(F)F)c2)c1C#N, which Potency is on record?
Answer: inconclusive: 35.5 µM [inhibitor, single point]

Question: Which Potency does the source give for CNC(=S)NNc1nc(N2CCOCC2)nc(N2CCOCC2)n1 here?
Answer: inactive

Question: With CC1=CCC(C(=O)O)C(C(=O)Nc2ccc(-c3nc4ccc(C)cc4s3)cc2)C1 (stereo not drawn) as the compound, how does the Potency read?
Answer: inconclusive: 31.6 µM [inhibitor, partial curve]

Question: With CN(C(=O)CSc1nnc2ccccn12)c1c(N)n(Cc2ccccc2)c(=O)[nH]c1=O as the compound, how does the Potency read?
Answer: inconclusive: 35.5 µM [inhibitor, partial curve]

Question: COc1ccc(NC(=O)CSc2nc(C)c3c(c2C#N)CCCC3)cc1 was tested. Which Potency did it give?
Answer: inconclusive: 39.8 µM [inhibitor, single point]

Question: For CCCCn1nnc(NC(=O)c2ccc(-c3ccccc3[N+](=O)[O-])o2)n1, which Potency is on record?
Answer: inactive
